Experimental findings from PMC12136788 are described below.

T1: UNK ZnF1-3 (human, UniProt Q9C0B0 31-174)
T1 sequence: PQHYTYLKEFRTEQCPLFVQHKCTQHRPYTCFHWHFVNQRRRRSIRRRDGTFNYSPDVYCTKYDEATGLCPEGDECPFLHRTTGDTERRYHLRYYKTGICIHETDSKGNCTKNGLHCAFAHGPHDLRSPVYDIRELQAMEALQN

B1: chr7:135612270:135612271:-_ENSG00000105887_ENST00000393085|hu_mus|hu_hu_hu_mus_False|38_78 (ssRNA)
RNA: GGGAGUUCUACAGUCCGACGAUCGUUUUUUUCUGAGAUGUUAAAUAGUACUUCAGUAACAAAACUUACUUAACCUUUUAUUAAUGCGUGUUGUACCAGAAAGCAAAAUUUUAGCUUCAUUUAUUCAAAAAUAUUAACAUUAAGCAACAGAGGAUUGAGCAUCA
B2: chr3:167401952:167401953:-_ENSG00000114209_ENST00000497056|hu_hu|FALSE|FALSE (ssRNA)
RNA: GGGAGUUCUACAGUCCGACGAUCAAAAGAAUGAUAAUAGCAAAAGUGAUGCAAAAUCUUCAGUGUGAGAUUAUGAUUAAGCUACAUUUUACAAAAAUAUGGUGUAAGAUGGCAAUAAUCCCAUUCAACAUCCUGGAUUAGAUCCAACAGAGGAUUGAGCAUCA
B3: 106934640_106934760_4635_CDS_ENSMUSG00000040481_ENSMUST00000057892|mouse|control|control (ssRNA)
RNA: GGGAGUUCUACAGUCCGACGAUCCUCUCCAGUUCUAACAGGAGACGGGAUAACUCUCUUAACCUCUGGACUUUCAGUUUCCAUAUCUUCUACCUGACUAAGUGAGUUCCGAUCUGGACAAGGGGCUCGGGGUGUGAUUACCUGCAACAGAGGAUUGAGCAUCA
B4: chr12:111951244:111951245:-_ENSG00000204842_ENST00000535949|hu_hu|FALSE|FALSE (ssRNA)
RNA: GGGAGUUCUACAGUCCGACGAUCUCUUGGAACCCCACUGACCACUGAUGACCACGUUCCCCCCGAGGGACUGGUCCUUGCUACUGGAGGAGUAGCUGCUUCACUGGGUGGGUUGUGGGAUACAAAUUCUAGGCCACUGGAUAUCAACAGAGGAUUGAGCAUCA
B5: chr8:41682716:41682717:-_ENSMUSG00000039431_ENSMUST00000048898|mus_hu|FALSE|FALSE (ssRNA)
RNA: GGGAGUUCUACAGUCCGACGAUCCACAUCGCUGAGCUGCCAGUAAUGAUUAGGGAGGCCCAUCCGCGUGUAUUCUUCACUAAGAUCGAUCAGCACCCAGCCUUGCUCUCUUUCUUCUUUAUCCAGCAUGGGGUUGAAUGAAAACAACAGAGGAUUGAGCAUCA
B6: 113762500_113763388_1254_CDS_ENSMUSG00000033392_ENSMUST00000111838|mouse|control|control (ssRNA)
RNA: GGGAGUUCUACAGUCCGACGAUCAUGAGCCUUGGCACCAGCUGCCGCAUUCACAUCAAUGUCACUUCGAGAACGCUGCAGGCUUCCUGGAAGGGGGUUGGCUUUGCUGCCUCCCACAGAUACUCUUCCAGCUACAGUUGAAGGCAACAGAGGAUUGAGCAUCA
B7: 29488330_29488785_1031_CDS_ENSG00000153339_ENST00000582539|human|control|control (ssRNA)
RNA: GGGAGUUCUACAGUCCGACGAUCUUUUUUAGUUGCAGAAAAUAGAGAUCGACUCAAACCUUUUCUUGAUAUUAGCUGAUCGUUUAAUUGCCUAAUUGUUUUCUCUAUAUGUGGCAAAAGGCCCCGAAAUGUGAACUCUUGUAUCAACAGAGGAUUGAGCAUCA
B8: chr7:54823571:54823572:-_ENSG00000132432_ENST00000352861|hu_mus|hu_hu_hu_mus_False|58_108 (ssRNA)
RNA: GGGAGUUCUACAGUCCGACGAUCUCCCAUUAUAGCAAAUCCUAUAGCUGUAGCCAUGGCAAUCUUCUGGAAUUCUUUUCUAUCAGGUUUGGUGCAUCUUUUAACCAGCCGAAUUGAGUCCUUUACAAACUGCCGGCUGGGCUCCAACAGAGGAUUGAGCAUCA
B9: chr6:42301883:42301884:+_ENSMUSG00000029860_ENSMUST00000070635|mus_mus|motif|central (ssRNA)
RNA: GGGAGUUCUACAGUCCGACGAUCCUGUGGGUGCUGCUUCUCUUGAACUAGGGGCUUCUCCUUCUGCUGAGCAUAGGUGAAGCGGGGGGGCUGAGGGGAGCCUGUGCUCACAGAAGAAGGAGCAUCCGGAGGCACCAUUUUUUGCAACAGAGGAUUGAGCAUCA
B10: chrX:71549400:71549401:+_ENSMUSG00000019087_ENSMUST00000019231|mus_hu|mus_mus_mus_hu_False|88_88 (ssRNA)
RNA: GGGAGUUCUACAGUCCGACGAUCGCAGUAGGAAGAGGGAAGCUCUUCAUCCACUGUCGCUGCAGGGUGGGAAAGCAACAACACGGACACCGUCCCACCCUCAACCCCCCCACUGGCACAGGGUCACACAAUCUGGGUCAAAGACAACAGAGGAUUGAGCAUCA
B11: chr3:128198961:128198962:-_ENSG00000179348_ENST00000341105|hu_mus|FALSE|FALSE (ssRNA)
RNA: GGGAGUUCUACAGUCCGACGAUCUGACUGGACCCAAAAAACGAGUUUCAAAAUAAAACCACUCAUCAGCGGGUUAAGCUUAUGCAGUUUGGUUUUCGCUUUGAGUAUUUUCUUAUUUAUCUUAGAGGGGGAGGGGGCCGAGGGCAACAGAGGAUUGAGCAUCA
B12: chr9:122046315:122046316:+_ENSMUSG00000038145_ENSMUST00000120173|mus_mus|FALSE|FALSE (ssRNA)
RNA: GGGAGUUCUACAGUCCGACGAUCAAGUUUGGUCUGGGUGUCUAUGACUUCAUAGAGACGCACAAUGUUGGGGUGCUGCACUAGUUUCAUGCACCUCACUUCCUGGAAGAGAUGACCAGUGGCUAGAGUGUCCAGCUUCGUCUUCAACAGAGGAUUGAGCAUCA
B13: chr4:103717905:103717906:-_ENSG00000109332_ENST00000394803|hu_mus|FALSE|FALSE (ssRNA)
RNA: GGGAGUUCUACAGUCCGACGAUCUUCAGUGCUAUAUUAAACAGUAUUGGAAGAUAGAUUAACUAAUAGCUCCAAGCCUCCUAACAAUUUAAAUGAAAAUUACAAAAUGUUUUGAGACCCUAUUUUGGAAUACAAAGGGUGUUUCAACAGAGGAUUGAGCAUCA
B14: chr14:62205016:62205017:+_ENSG00000100644_ENST00000337138|hu_mus|FALSE|FALSE (ssRNA)
RNA: GGGAGUUCUACAGUCCGACGAUCCUGAUCUUGAAUCUGGGGCAUGGUAAAAGAAAGUCCCAGUGACUCUGGACUUGAUUCUAAUUUUAAUGCAACCUCUUGAUUCAGUGCAGGAUCAGCACUACUUCGAAGUGGCUUUGGAGUCAACAGAGGAUUGAGCAUCA
B15: chr2:48026839:48026840:+_ENSG00000116062_ENST00000540021|hu_hu|hu_hu_hu_mus_False|8_38 (ssRNA)
RNA: GGGAGUUCUACAGUCCGACGAUCAUAGUGAGCCACUAGCGUCCUAAAUCUGGAACAGUGGCGGUCAUCCGAAAACUGGCCGAUGAAAAACUUGCCCAGUGAAGUAUCCACAAAGCAAACACCAUACGCACGAGUAUGACCAGACAACAGAGGAUUGAGCAUCA
B16: chr1:163112212:163112213:-_ENSG00000143248_ENST00000313961|hu_hu|hu_hu_hu_mus_False|8_48 (ssRNA)
RNA: GGGAGUUCUACAGUCCGACGAUCUUUUAUUAUCAGUAAGAGUGAGUUACAUACUAGGCAAAGUAUUGGAUACAAUAAUCAGGAAACAAACACAAUUGGUCCAGAAUUUAAAACUUUAUGAGCGAAGGCUUACAAAUGGACUUACAACAGAGGAUUGAGCAUCA
B17: chr7:888068:888069:+_ENSG00000164828_ENST00000456758|hu_hu|FALSE|FALSE (ssRNA)
RNA: GGGAGUUCUACAGUCCGACGAUCUUGAACUAAAAAUGAUGAAAAAGAUGAUGCAGUGUAUCUGGCCAGCCACAAAAUCCUAUUCACGUAGAAAGACGCACCGCAUUUUUGAUUCCUGUCCCUAGAAUAAACUCUCGACACGGGCAACAGAGGAUUGAGCAUCA
B18: chr3:94683992:94683993:+_ENSMUSG00000038902_ENSMUST00000107270|mus_mus|motif|central (ssRNA)
RNA: GGGAGUUCUACAGUCCGACGAUCGUUAACGUUGCCAUCGGGACCUGGCAGAACACUAGCCACAAGGAAGGACCGCUGAACGGGCUCUGGGGAGUCCCCAAUGACACCCAGCACCUCUCCCAGCCAGACCAACACCAGCUGAAGCAACAGAGGAUUGAGCAUCA
B19: chr11:87793471:87793472:-_ENSMUSG00000020483_ENSMUST00000020775|mus_mus|mus_mus_mus_hu_False|78_78 (ssRNA)
RNA: GGGAGUUCUACAGUCCGACGAUCUGGACUUGAAAAUAAAAGAAUAAGCUGGAUCCCCCCACCCCUUACAUUGUCAACCCUACACGAGAGUUUUGAAGGCGACUCAUGAAAAUCAGCAGCUCAAACGGCAAUGACCACCCCACCCAACAGAGGAUUGAGCAUCA
B20: chr2:9724813:9724814:-_ENSG00000134308_ENST00000238081|hu_mus|FALSE|FALSE (ssRNA)
RNA: GGGAGUUCUACAGUCCGACGAUCAAUUUUUAUUGGGAAGGAAGUUGUCAACUUAAACAGCAGCAAAUGAAGAAUGCAUAAGGAAACUCCCUGUUGUCACAGAAAGAUGUAACCUCCAGAAUAUGUGACACAGGAGACAUUUCGCAACAGAGGAUUGAGCAUCA
B21: chr9:75414013:75414014:-_ENSMUSG00000032186_ENSMUST00000064433|mus_mus|FALSE|FALSE (ssRNA)
RNA: GGGAGUUCUACAGUCCGACGAUCACUGGUAAGCCAUUAUGACCAGUGGCAUGCAAGAAUUUUACAUGUUUAUGUGCAAUGAAAAAUGUUGCUUGUUUUCUGAAAAAACAUGAAACACGAUUAAGAUAAAGGCUUACUUAAAAUCAACAGAGGAUUGAGCAUCA
B22: chr2:181324804:181324805:-_ENSMUSG00000000823_ENSMUST00000128553|mus_mus|motif|central (ssRNA)
RNA: GGGAGUUCUACAGUCCGACGAUCGCCCCUUACCCCUUGGCACCGCUGAUAGUGGUACUUGAGCCCAUAGAUGCUGGGGAACUCGGGCCAGCACCCUGAGUUUGGACACUUCACCCUUGAGUGUGCCUUGAAUUCAUCUUUCCACAACAGAGGAUUGAGCAUCA

This is one part of the list.

In the assay the target is T1, UNK ZnF1-3. Put plainly: nsRBNS (natural sequence RNA bind-n-seq); RBNS binding buffer (assumed for nsRBNS): 25 mM Tris pH 7.5, 150 mM KCl, 3 mM MgCl2, 0.01% Triton X-100, 500 ug/ml BSA, 20 U/ml SUPERase-In, 4 C; UNK is unkempt and MSI1 is Musashi-1; names of the RNAs are library labels; protein concentration not given here; high values mean tight binding.
Molecule B1 returned a binding signal of 1.04 enrichment R.

In the case of B2, the binding signal came out at 1.02 enrichment R.

In the case of B3, the binding signal stood at 0.74 enrichment R.

The molecule B4 came in with a binding signal of 0.642 enrichment R.

B5 displayed a binding signal of 1.12 enrichment R.

B6: the binding signal was 1.33 enrichment R.

In the case of B7, the binding signal was 0.737 enrichment R.

With B8, the binding signal worked out at 0.842 enrichment R.

The molecule B9 showed a binding signal of 1.09 enrichment R.

As to B10, the binding signal was found to be 1.07 enrichment R.

As for B11, the binding signal was 1.99 enrichment R.

Turning to B12, the binding signal came out at 0.755 enrichment R.

Regarding B13, the binding signal came to 1.12 enrichment R.

As for B14, the binding signal came out at 0.707 enrichment R.

In turn, B15 showed a binding signal of 1.1 enrichment R.

B16 had a binding signal of 1.03 enrichment R.

B17: the binding signal stood at 1.11 enrichment R.

Turning to B18, the binding signal was 1.1 enrichment R.

B19 had a binding signal of 1.89 enrichment R.

For the molecule B20, the binding signal worked out at 1.53 enrichment R.

In turn, B21 registered a binding signal of 0.566 enrichment R.

In the case of B22, the binding signal was determined as 0.671 enrichment R.
